The subject of data set [1] is Sprague-Dawley rats. Nature of the data set: Conditioned place preference. As to conditions: 10 mg/kg IV.
Data set [2] deals with Sprague-Dawley rats. Nature of the data set: Prepulse inhibition (sensory-motor gating). The settings on record: ketamine 10 mg/kg IP; GLYX-13 10 mg/kg IV.

As for `CNC1(c2ccccc2Cl)CCCCC1=O` (centres unmarked) [Ketamine, ketamine], the “conditioned place preference as measured by % time in drug paired chamber” value in the data set on Sprague-Dawley rats [1] is “induced conditioned place preference”. Moreover, the “sensory-motor gating as measured by prepulse inhibition” value in the data set on Sprague-Dawley rats [2] is recorded as “decreased sensory-motor gating”.
